The campaign covered roughly 44,000 compounds. About 340 (0.77%) were called active. Not shown: some 5% with an inconclusive outcome. Calls come from the whole dose curve; as a rule, active = well fitted inhibition curve with a large enough effect; inconclusive = small, poorly fitted or top-dose-only effect; inactive = flat fitted curve, though single readings scatter. The list shows a part of the results.
test: Acumen qHTS Assay for Inhibitors of the mTORC1 Signaling Pathway in MEF (Tsc2-/-, p53-/-) Cells: Sytravon; details: phospho-rpS6 immunofluorescence/PI, 24 h; series mostly up to 38.3 µM; activity change, negative = inhibition: at the top concentration;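 note: plate controls were DMSO for no effect and rapamycin for full effect; nearly all actives have a fitted effect of over 50% in size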
How it was run: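 Tsc2-/-, p53-/- mouse embryonic fibroblasts (empty-vector line) exposed to compound 24 hrs at 37 C, fixed, immunostained for phospho-rpS6 and counterstained with propidium iodide. Acumen laser scanning gives % positive cells from Alexa 488/PI ratio, thresholded using 7.5 nM rapamycin; PI count gives viability.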

Structure (SMILES) | activity change, negative = inhibition
Cc1ccccc1CS(=O)(=O)Cc1ccc(C(=O)NCCc2ccc(Cl)cc2)o1 | inactive: -12.8%
CCOC(=O)C1CCCN(c2c(C(=O)c3ccccc3)cnc3ccc(F)cc23)C1 (configuration not stated) | inactive: 0.154%
Cc1cn2c(=O)cc(COC(=O)c3ccc(NC(=O)c4ccccc4C)cc3)nc2s1 | inactive: 0%
COc1ccc2c(c1)c1c(c(=O)n(-c3ccc(OC)c(OC)c3)c(=O)n1Cc1ccc(F)cc1)n2C | inactive: -2.74%
Cc1ccccc1NC(=O)COc1ccc2oc3c(c2c1)CCCC3 | inactive: -27.5%
CCOC(=O)N1CCC(NC(=O)c2cnn(-c3ccc(OC)cc3)c2C2CCN(C(=O)OC(C)(C)C)CC2)CC1 | inactive: 7.83%
Cc1ccc(Cn2c(=O)c3cccnc3n(Cc3ccc(C)cc3)c2=O)cc1 | inactive: -6.74%
O=C(CN1C(=O)COc2ccc(S(=O)(=O)N3CCCCCC3)cc21)N1CCN(c2ccc(F)cc2)CC1 | inactive: 2.33%
COc1ccc(-c2cc3nc(C)c(CCC(=O)NCCc4ccc(Cl)cc4)c(C)n3n2)c(OC)c1 | inactive: -12.5%
Cc1ccc(Cn2c(=O)n(-c3cccc(C(F)(F)F)c3)c(=O)c3c(C)c(C)sc32)c(C)c1 | inactive: -13.3%
Cc1ccc(CSc2ncc(Cl)c(C(=O)Oc3ccccc3F)n2)cc1 | inactive: 4.18%
Cc1cn(C)c(CC(=O)Nc2cccc(C#N)c2)c1C(=O)O | inactive: -3.23%
Cc1ccccc1OCCn1cc(C(=O)c2ccco2)c2ccccc21 | inactive: 4.3%
Cc1ccc(-c2nn3c(=O)cc(CN4CCN(C(=O)Nc5cccc(C(F)(F)F)c5)CC4)nc3s2)cc1 | inactive: 5.34%
Clc1ccc(-c2noc3ncnc(NC4CCCCC4)c23)cc1 | inactive: -0.233%
Cc1ccc(CCNC(=O)c2cnc3c(-c4ccc(F)cc4)c(C)nn3c2C)cc1 | inactive: 0.517%
O=C(CCn1c(=O)c2ccccc2n(Cc2cccc(F)c2)c1=O)NCc1ccc2c(c1)OCO2 | inactive: 6.26%
Cc1cc(C)cc(N2C(=O)N(Cc3cc(=O)n4ccccc4n3)c3ccccc3S2(=O)=O)c1 | inactive: -5.8%
CCc1nn(CC(=O)NCc2ccc(C)cc2)c(=O)c2cc3occc3n12 | inactive: 0.877%
COc1ccc(N2CCN(c3nc4ccc(C(=O)c5ccccc5)cc4n4cnnc34)CC2)cc1 | inactive: -3.11%
COc1ccc(NC(=O)Cc2c(C(=O)O)[nH]c3ccccc23)cc1OC | inactive: 0.234%

Structure (SMILES) | activity change, negative = inhibition
COc1ccc(CNC(=O)Cc2coc3ccc(C)cc23)cc1 | inactive: -7.6%
Cc1ccc(NC(=O)c2oc3ccc(S(=O)(=O)N4CCOCC4)cc3c2C)c(C)c1 | inactive: -1.39%
COc1cc(C2c3c(oc4ccc(F)cc4c3=O)C(=O)N2Cc2ccc3c(c2)OCO3)ccc1O (configuration not stated) | inactive: 0.735%
CCCCN(CC)C(=O)c1c[nH]c2ccc(S(=O)(=O)N(C)c3ccc(Cl)cc3)cc2c1=O | inactive: 6.44%
COC(=O)c1cccnc1-n1c(=O)c2cccnc2n(CC(=O)Nc2cccc(C)c2)c1=O | inactive: 0%
CC(C)Oc1ccc(CNC(=O)c2ccc3c(c2)nc2n3CCOC2)cc1 | inactive: -9.31%
COc1cc(NC(=O)N2CCSc3ccccc32)cc(OC)c1OC | inactive: 5.72%
CCN(c1ccccc1C)S(=O)(=O)c1nnc(NC(=O)c2ccccc2C)s1 | inactive: 4.11%
CCCc1nnc(NC(=O)Nc2ccccc2Cl)s1 | inactive: 5.79%
Cc1nc2nc(C)c(NS(=O)(=O)c3ccc(CC(C)C)cc3)c(=O)n2[nH]1 | inactive: -1.26%
CCOc1ccc(OCC)c(NC(=O)C2CCCN(S(=O)(=O)c3cc(Br)cc4c3N(C(=O)CC)CC4)C2)c1 (configuration not stated) | inactive: 0.459%
Cc1nn(C(=O)c2c(F)cccc2F)c(C)c1S(=O)(=O)N1CCCCCC1 | inactive: -4.67%
CCn1c(CN2CCOCC2)nc2cc(NC(=O)c3cccc([N+](=O)[O-])c3)ccc21 | inactive: -5.13%
Cn1c(=O)c2c(-c3ccccc3)n(CCCO)cc2n(C)c1=O | inactive: -10.5%
COc1ccc(NC(=O)Cn2cc(C(=O)c3ccccc3OC)c(=O)c3ccc(C)nc32)cc1OC | inactive: -3.7%
CC(=O)Nc1nnc2n1CCS2 | inactive: -1.36%
COc1ccc(C)cc1NC(=O)c1nnn(-c2c(C)cccc2C)c1C | inactive: 0.573%
Cc1ccc(C)c(NC(=O)/C(C#N)=C/c2ccc(C(C)C)cc2)c1 | inactive: -12.7%
CCOC(=O)c1ccc(N2CCN(c3cc(C)ccc3C)CC2)c(NC(=O)Nc2ccc(Cl)cc2)c1 | inactive: 14.3%
CC(C)N(C(=O)Cn1cc(SCC(=O)Nc2ccccc2C(F)(F)F)c2ccccc21)C(C)C | inactive: 2.99%
CCOc1ccc(C2C(C(=O)Nc3ccccc3C)=C(C)Nc3nnnn32)cc1 (configuration not stated) | inactive: -2.43%

Structure (SMILES) | activity change, negative = inhibition
Cn1c(=O)c2c(c3ccccc31)OC(=O)CC2c1cccc(Cl)c1 (configuration not stated) | inactive: -8.82%
COc1ccccc1/C=C/c1nc(C#N)c(NCC(C)C)o1 | inactive: -0.281%
COc1cc(NC(=O)CN2Cc3ccccc3C2=O)cc(OC)c1OC | inactive: -4.01%
Cc1ccc(-c2nc(CCNC(=O)C(=O)Nc3c(C)cccc3C)cs2)cc1 | inactive: -20.3%
CCOCCn1cnc2sc(C(=O)Nc3ccccc3C(=O)OC)c(C)c2c1=O | inactive: -1.11%
O=C(Cn1ccc2cc(S(=O)(=O)N3CCCCC3)ccc21)NCc1ccccc1Cl | inactive: -1.05%
CCOc1cccc(CC(=O)N2CCc3c([nH]c4ccccc34)C2c2ccc(SC)cc2)c1OCC (configuration not stated) | inactive: -0.582%
COc1ccc(N2C(=O)CSC23C(=O)N(Cc2ccc(C)cc2)c2ccccc23)cc1Cl (configuration not stated) | inactive: -7.1%
CCOc1ccc(NC(=O)Cn2nc(Cc3ccncc3)c3ccccc3c2=O)cc1 | inactive: -11.6%
CCCN(CCC)C(=O)c1nn(C)c2c1CSc1ccc(C)cc1-2 | inactive: 0%
CC(C)Cn1c(=O)c2ccccc2n2c(CCC(=O)Nc3ccc(F)cc3)nnc12 | inactive: -3.79%
CCOC(=O)c1cc(-c2ccccc2)n(CCCC(=O)Nc2ccccc2C)c1C | inactive: -2.59%
COc1ccc(-n2ccnc(NCc3ccccc3Cl)c2=O)cc1OC | inactive: 5.61%
COc1ccc(C(=O)c2oc3ccccc3c2NC(=O)c2cccc(OC)c2)cc1 | inactive: 1.89%
Cc1nc(-c2ccc(S(=O)(=O)Nc3ccc(Cl)c(C(F)(F)F)c3)cc2)co1 | inactive: -12%
COc1ccc(CNC(=O)c2sc3nc4n(c(=O)c3c2C)CCCCC4)cc1 | inactive: 3.34%
Clc1cccc(C2=NC(c3cccs3)=Nc3ccc(Br)cc3N2)c1 | inactive: -5.55%
CCN(CC)CCOC(=O)c1ccc(Nc2c3c(nc4ccccc24)CCC3)cc1 | inactive: -10.3%
COc1ccc(CNC(=O)C(CC(C)C)N2Cc3ccccc3C2=O)cc1 (configuration not stated) | inactive: -2.77%
CC(C)CN(CCNC(=O)c1cc(-c2cccs2)nc2ccccc12)CC(C)C | inactive: 2.64%

Reference: PubChem BioAssay AID493208 (National Center for Advancing Translational Sciences (NCATS), 2011)
